Source: the supplement of paper PMC3694890
± gives the uncertainty stated by the source. The list shows a part of the results. Phosphotyrosine is written y.

Target: GRB2 (endogenous complexes from cell lysate), P62993
Assay: GRB2 complex binding differential signal (pY peptide minus Ala control peptide) (fluorescence intensity units); higher = stronger GRB2 complex binding
Method: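 In situ synthesized µParaflo PepArray of 6-mer peptides, each starting with an N-terminal phosphotyrosine (lowercase 'y' = pY) followed by 5 native residues. Peptides are tethered to glass through a long linker. Chips were incubated overnight at 4°C with total cell lysate (1 mg in 1 mL) from MCF10A, MCF7, T47D or MDA-MB-231 cells. Bound endogenous GRB2-containing complexes were detected with rabbit anti-GRB2 and an Alexa647 secondary antibody. Signals are background-subtracted and averaged over replicate spots, then the matched Ala-substituted control peptide signal is subtracted (differential signal).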
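Also: phosphopeptide probes on the chip at 1–4 µM, lysate proteins bound in 20 mM Tris pH 7.0 buffer with 140 mM NaCl, 1% Triton X-100 and 5% glycerol.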

Row | Binder | GRB2 complex binding differential signal (MCF7) | GRB2 complex binding differential signal (MCF10A) | GRB2 complex binding differential signal (MDA-MB-231) | GRB2 complex binding differential signal (T47D)
1 | yAQPQT [CRKL_207/A1] | 2800 ± 1100 | 3420 ± 890 | 1410 ± 630 | 1110 ± 1100
2 | yVRALF [CRK_136/A1] | 659 ± 680 | 253 ± 410 | 1000 ± 590 | 2470 ± 1200
3 | yAQPSV [CRK_221/A1] | 2840 ± 2500 | 2120 ± 830 | 1090 ± 510 | 1010 ± 1000
4 | yARVIQ [CRK_239/A1] | 5080 ± 1400 | 2770 ± 440 | 609 ± 390 | 841 ± 1400
5 | yDKTAL [CRK_251/A1] | 1160 ± 510 | 1740 ± 480 | 625 ± 280 | 1070 ± 930
6 | yEGNSY [CSF1R_556/A1] | 3120 ± 1300 | 896 ± 1200 | 511 ± 310 | 576 ± 1600
7 | yTFIDP [CSF1R_561/A1] | -3.39 ± 260 | 115 ± 140 | 3300 ± 710 | 7450 ± 1400
8 | yKNIHL [CSF1R_699/A1] | 45200 ± 7900 | 24700 ± 10000 | 4990 ± 1500 | 14500 ± 3800
9 | yVRRDS [CSF1R_708/A1] | 1950 ± 540 | 829 ± 290 | 702 ± 310 | 352 ± 880
10 | yVEMRP [CSF1R_723/A1] | 1410 ± 560 | 1330 ± 480 | 1310 ± 440 | 1180 ± 770
11 | yTAHAG [ABL1_393/A1] | 3830 ± 430 | 1300 ± 460 | 935 ± 510 | 1450 ± 1100
12 | yIVKGN [CSF1R_809/A1] | 1450 ± 410 | 2230 ± 450 | 912 ± 460 | 573 ± 1000
13 | yRSGWA [CSK_184/A1] | 251 ± 260 | 298 ± 170 | 487 ± 270 | 170 ± 980
14 | yLEGNN [CSK_304/A1] | 448 ± 480 | 141 ± 150 | 564 ± 310 | 230 ± 870
15 | yEVMKN [CSK_416/A1] | 696 ± 260 | 493 ± 220 | 935 ± 260 | 449 ± 900
16 | yPIRAP [CSPG2_208/A1] | 687 ± 680 | 2180 ± 1100 | 359 ± 930 | 414 ± 1300
17 | yPNQSV [DAG1_831/A1] | 1370 ± 380 | 908 ± 370 | 1100 ± 360 | 3560 ± 1400

Row | Binder | GRB2 complex binding differential signal (MCF7) | GRB2 complex binding differential signal (MCF10A) | GRB2 complex binding differential signal (MDA-MB-231) | GRB2 complex binding differential signal (T47D)
18 | yQPPPP [DAG1_863/A1] | 4960 ± 1500 | 3710 ± 760 | 1790 ± 520 | 1650 ± 1100
19 | yRSPPP [DAG1_886/A1] | 15600 ± 3200 | 9750 ± 1600 | 3380 ± 630 | 3200 ± 1100
20 | yQEPRP [DDR1_484/A1] | 6760 ± 2000 | 3770 ± 490 | 1780 ± 460 | 1780 ± 1200
21 | yRLLLA [DDR1_513/A1] | 147 ± 340 | 236 ± 290 | 999 ± 300 | 2120 ± 1000
22 | yELMRA [ABL1_469/A1] | 1050 ± 420 | 452 ± 340 | 1180 ± 320 | 1720 ± 1700
23 | yARPPR [DDR1_520/A1] | 3860 ± 570 | 1250 ± 400 | 961 ± 330 | 722 ± 960
24 | yMENGD [DDR1_703/A1] | 1070 ± 2200 | 1130 ± 720 | 705 ± 360 | 766 ± 1200
25 | yPMLLH [DDR1_740/A1] | 29.3 ± 300 | 190 ± 220 | 98.5 ± 210 | 205 ± 1300
26 | yAGDYY [DDR1_792/A1] | 54 ± 180 | 143 ± 140 | 508 ± 290 | 854 ± 1400
27 | yYRVQG [DDR1_796/A1] | 1770 ± 250 | 627 ± 230 | 517 ± 330 | 607 ± 1200
28 | yRVQGR [DDR1_797/A1] | 938 ± 380 | 468 ± 310 | 243 ± 360 | 181 ± 1100
29 | yLSRPP [DDR1_869/A1] | 2660 ± 1700 | 2170 ± 370 | 1850 ± 480 | 2850 ± 1600
30 | yELMLR [DDR1_881/A1] | 662 ± 200 | 164 ± 320 | 1370 ± 440 | 1770 ± 3600
31 | yLPVQT [DMD_3394/A1] | 2120 ± 1200 | 3080 ± 780 | 1430 ± 340 | 1600 ± 1300
32 | yLIPQQ [EGFR_1016/A1] | 10200 ± 2600 | 5490 ± 810 | 2420 ± 620 | 1100 ± 2600
33 | yDFVAS [ABL2_116/A1] | -37 ± 320 | 103 ± 170 | 306 ± 280 | 630 ± 1500
